{
  "source": "PubChem BioAssay AID662",
  "about": "(National Center for Advancing Translational Sciences (NCATS), 2007)",
  "note": "About 1,800 (2.5%) of roughly 71,000 compounds were called active. Inconclusive means that the source gave no clear call. Such entries were picked first, then a sample of the others. The call rests on the fitted dose curve; in most records, active means well fitted activation curve with a large enough effect in the signal ratio, with a control signal flat (not every such curve was filed as active); inconclusive means small, poorly fitted or top-dose-only effect, or effect the other way, or a change in a side signal; inactive means flat fitted curve, though single readings scatter; the % refers to the signal ratio. A potency beside an inconclusive call is a rough fit, not a confirmed value. Potency means the concentration at half of the fitted maximal effect; tags describe the fitted curve by direction and shape.",
  "data": [
    {"assay": "Cell signaling CRE-BLA (Fsk stim); on activity change, negative = inhibition: % of control where 0% means no effect", "details": "CHO CRE-bla reporter (cAMP response element driving beta-lactamase), forskolin EC10, beta-lactamase ratio; activity change, negative = inhibition: at 38.2 µM (top of the series) unless noted", "outline": "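Modulation of forskolin signalling: compounds in titration series added with EC10 NKH 477 to CHO cells carrying a CRE-driven beta-lactamase reporter, 3 h, 37C. CCF4 FRET ratio (460/530 nm, ex 405 nm) gives %activity and AC50.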", "values": [
      {"smiles": "COC(=O)C(C)Sc1nc2c(c(=O)[nH]c(=O)n2C)n1CCCc1ccccc1", "note": "(stereo unspecified)", "Potency": "inconclusive: 12.6 µM [rising, single point]"},
      {"smiles": "COc1nc(-c2ccc(C)cc2)ccc1-c1noc(-c2ccco2)n1", "activity change, negative = inhibition": "inconclusive: 19.3%"},
      {"smiles": "C[C@@H]1C=C[C@](Cc2ccccc2)(C(=O)NCCc2c[nH]c3ccccc23)N1C(=O)c1ccccc1", "activity change, negative = inhibition": "inactive: -13.5%"},
      {"smiles": "NC[C@@H]1O[C@H](O[C@@H]2[C@H](O[C@@H]3O[C@H](CO)[C@@H](O)[C@@H]3O)[C@@H](O)[C@@H](N)C[C@H]2N)[C@@H](N)[C@H](O)[C@@H]1O", "activity change, negative = inhibition": "inactive: 5.31% [at 17.1 µM]"},
      {"smiles": "Cc1cccc(NS(=O)(=O)c2ccc(Oc3ccccc3)cc2)n1", "activity change, negative = inhibition": "inactive: 2.15%"},
      {"smiles": "CCOC(=O)C1=C(C)Nc2ccccc2N=C1NC(=O)c1cccc(S(=O)(=O)N(C)C)c1", "activity change, negative = inhibition": "inconclusive: 14.2%"},
      {"smiles": "Cc1cc(-n2[nH]c(C)c(C)c2=O)nc(-c2ccccc2O)n1", "activity change, negative = inhibition": "inconclusive: -14%"},
      {"smiles": "CCOC(=O)c1ccccc1NC(=O)c1ccc(Cl)c(S(=O)(=O)N2CCOCC2)c1", "Potency": "inconclusive: 5.01 µM [rising, partial curve]"},
      {"smiles": "CCNc1ccccc1", "activity change, negative = inhibition": "inactive: -14.6%"},
      {"smiles": "CCC(C)(C(=O)NC1CCCC1)N(Cc1cccs1)C(=O)Cc1cccs1", "note": "(stereo unspecified)", "Potency": "inconclusive: 10 µM [falling, single point]"},
      {"smiles": "Cc1ccc(-c2nn3c(C)nnc3s2)cc1NC(=O)c1ccc(-c2ccc(Cl)cc2Cl)o1", "activity change, negative = inhibition": "inconclusive: 19.6%"},
      {"smiles": "CCOc1cccc(=O)c2c(C)n(Cc3ccco3)c(C)c12", "activity change, negative = inhibition": "inactive: 5.58%"},
      {"smiles": "COc1ccc(NCc2n[nH]nc2-c2ccccc2)cc1Cl", "activity change, negative = inhibition": "inconclusive: 26.5%"},
      {"smiles": "O=C(Nc1nccs1)c1ccc(Cl)c(S(=O)(=O)N2CCCCC2)c1", "Potency": "inconclusive: 5.01 µM [rising, partial curve, poor fit]"},
      {"smiles": "COc1ccccc1C1c2c(oc3ccc(Cl)cc3c2=O)C(=O)N1c1cc(C)on1", "note": "(stereo unspecified)", "activity change, negative = inhibition": "inactive: 7.25%"},
      {"smiles": "O=C(O)c1ccc([N+]2=Cn3c(nc4ccccc43)C2)cc1", "activity change, negative = inhibition": "inactive: -3.9% [at 7.6 µM]"},
      {"smiles": "C=CC(=C)CC(NC)c1ccccc1", "note": "(stereo unspecified)", "activity change, negative = inhibition": "inconclusive: -11.7%"},
      {"smiles": "COc1cccc(Cn2c(=O)cnc3cnc(Nc4ccccc4)nc32)c1", "Potency": "inconclusive: 10 µM [rising, partial curve]"},
      {"smiles": "COc1ccc2c(c1)c1ncnc(N3CCN(Cc4ccc5c(c4)OCO5)CC3)c1n2C", "Potency": "inconclusive: 3.16 µM [rising, single point]"},
      {"smiles": "CN(C)c1nc(N)nc(-c2cccnc2)n1", "Potency": "inconclusive: 10 µM [rising, single point]"},
      {"smiles": "Cn1c(=O)c2c(ncn2CC(=O)Nc2ccccc2Sc2ccccc2)n(C)c1=O", "Potency": "inconclusive: 3.16 µM [rising, partial curve]"},
      {"smiles": "N#CCCn1c(=O)c(CCc2ccccc2)nc2cnc(Oc3cccc(Cl)c3)nc21", "activity change, negative = inhibition": "inactive: 9.21%"},
      {"smiles": "Cc1cc(=O)n2[nH]c(C)c(-c3ccccc3)c2n1", "activity change, negative = inhibition": "inactive: -7.88%"},
      {"smiles": "C[C@@H]1C=C[C@](Cc2ccccc2)(C(=O)NCCCNc2ncc(C(F)(F)F)cc2Cl)N1C(=O)c1ccccc1", "Potency": "inconclusive: 10 µM [rising, partial curve]"},
      {"smiles": "CC(C)OCCCNc1ncnc2c1[nH]c1ccccc12", "activity change, negative = inhibition": "inconclusive: -11.4%"},
      {"smiles": "CCOC(=O)CSc1nc2cc3c(cc2cc1C#N)OCO3", "activity change, negative = inhibition": "inactive: 15.1%"},
      {"smiles": "O=C(NCCN1CCOCC1)c1cc2ccccc2o1", "activity change, negative = inhibition": "inactive: 3.32%"},
      {"smiles": "O=C(Cn1cnc2c(cnn2-c2ccccc2)c1=O)c1ccc(Cl)cc1", "activity change, negative = inhibition": "inactive: -2.6%"},
      {"smiles": "Nc1nc(CSc2nc3ccccc3s2)nc(N2CCCCC2)n1", "Potency": "active: 5.01 µM"},
      {"smiles": "Cc1ccc2c(c1)N(CC(=O)N1CCCCC1c1cccnc1)C(=O)CO2", "note": "(stereo unspecified)", "activity change, negative = inhibition": "inactive: 7.82%"},
      {"smiles": "CC(C)(C)C1CCc2c(sc(NC(=O)c3cc(C4CC4)on3)c2C#N)C1", "note": "(stereo unspecified)", "Potency": "inconclusive: 10 µM [rising, partial curve]"},
      {"smiles": "Cc1ccc(CNC(=O)CSc2nc(N3CCCCC3)nc(N3CCCCC3)n2)cc1", "activity change, negative = inhibition": "inconclusive: -11.3%"},
      {"smiles": "COc1ccc(-n2nc3c(c2NC(=O)C2CC2)CS(=O)C3)cc1", "note": "(stereo unspecified)", "activity change, negative = inhibition": "inconclusive: -3.5%"},
      {"smiles": "CN(CC(=O)NCCc1ccccc1)S(=O)(=O)c1cccs1", "activity change, negative = inhibition": "inconclusive: 0.534%"},
      {"smiles": "COc1ccc(CNc2nc(-c3ccc4c(c3)OCO4)nc3ccccc23)c(OC)c1", "activity change, negative = inhibition": "inconclusive: 24%"},
      {"smiles": "COc1ccc(CNC(=O)C2CC(c3ccc(F)cc3)=NO2)cc1", "note": "(stereo unspecified)", "activity change, negative = inhibition": "inconclusive: 28.4%"},
      {"smiles": "CCNc1ncc2nc(-c3ccccc3)c(=O)n(Cc3cccc(OC)c3)c2n1", "Potency": "inconclusive: 2 µM [rising, partial curve]"},
      {"smiles": "Cc1cc2ncn(CC(=O)O)c2cc1C", "activity change, negative = inhibition": "inactive: -0.829% [at 7.6 µM]"},
      {"smiles": "Cc1nnc(SCCn2c(N3CCCC(C)C3)nc3c2c(=O)n(C)c(=O)n3C)s1", "note": "(stereo unspecified)", "activity change, negative = inhibition": "inactive: 8.08%"},
      {"smiles": "CN1/C(=C/C(=O)c2nc(S(C)(=O)=O)ncc2Cl)C(C)(C)c2ccccc21", "Potency": "inconclusive: 6.31 µM [falling, partial curve]"},
      {"smiles": "Nc1ccc(-c2nnc(-c3ccc(-c4ccccc4)cc3)o2)cc1", "Potency": "inconclusive: 6.31 µM [rising, partial curve]"}
    ]}
  ]
}
